Earlier results, collected in PMC8869507, “Gel-Forming of Self-Assembling Peptides Functionalized with Food Bioactive Motifs Modulate DPP-IV and ACE Inhibitory Activity in Human Intestinal Caco-2 Cells” (Biomedicines, 2022).

System: Caco-2 cells
Conditions: apical side of Caco-2 cells, trans-epithelial transport; ref [29]; cited from earlier work
Description: This difference was explained ...

## IAVPTGVA [Soy1]
  break-down fragments by intestinal peptidases: partially degraded in three small peptides AVPTGVA, IAVPT, and IAVP
